Experimental data reported in US11685745B2, “Substituted benzoxazole and benzofuran compounds as PDE7 inhibitors” (Dart NeuroScience, LLC, priority 2017, dated 2023).

Target: N-terminal truncated recombinant human PDE7B enzyme (Homo sapiens (Human), UniProt Q9NP56)
Assay: biochemical

| Compound | IC50 [nM] |
| --- | --- |
| COc1ccccc1CN(C)C(=O)c1cc2cc(Cl)c3c(c2o1)C1(CCCCC1)NC(=O)N3 [Example 282, 5′-Chloro-N-[(2-methoxyphenyl)methyl]-N-methyl-7′-oxo-7′,8′-dihydro-6′H-spiro[cyclohexane-1,9′-furo[2,3-f]quinazoline]-2′-carboxamide] | 10 to 100 |
| CN(C)C(=O)N1CCN(Cc2cc3cc(Cl)c4c(c3o2)C2(CCCCC2)NC(=O)N4)CC1 [Example 519, 4-{5′-Chloro-7′-oxo-7′,8′-dihydro-6′H-spiro[cyclohexane-1,9′-furo[2,3-f]quinazoline]-2′-ylmethyl}-N,N-dimethylpiperazine-1-carboxamide] | 10 to 100 |
| CN1CCc2ccsc2C12CCN(C(=O)c1cc3cc(Cl)c4c(c3o1)C1(CCCCC1)NC(=O)N4)CC2 [Example 341, 5′-Chloro-2′-({6′-methyl-5′,6′-dihydro-4′H-spiro[piperidine-4,7′-thieno[2,3-c]pyridine]-1-yl}carbonyl)-7′,8′-dihydro-6′H-spiro[cyclohexane-1,9′-furo[2,3-f]quinazoline]-7′-one] | 10 to 100 |
| O=C1Nc2c(Cl)cc3nc(CN4C[C@@H]5C[C@H]4CO5)oc3c2C2(CCC(F)(F)CC2)N1 [Example 168, 5-Chloro-4′,4′-difluoro-2-[(1S,4S)-2-oxa-5-azabicyclo[2.2.1]heptan-5-ylmethyl]-7,8-dihydro-6H-spiro[[1,3]oxazolo[5,4-f]quinazoline-9,1′-cyclohexane]-7-one] | 100 to 1000 |
| COc1ccccc1[C@H]1[C@@H]2CN(C(=O)c3cc4cc(Cl)c5c(c4o3)C3(CCCCC3)NC(=O)N5)C[C@@H]21 [Example 392, 5′-Chloro-2′-[(1R,5S,6S)-6-(2-methoxyphenyl)-3-azabicyclo[3.1.0]hexane-3-carbonyl]-7′,8′-dihydro-6′H-spiro[cyclohexane-1,9′-furo[2,3-f]quinazoline]-7′-one] | 100 to 1000 |
| O=C1Nc2c(Cl)cc3nc(CNCC4COC4)oc3c2C2(CCCCC2)N1 [Example 89, 5-Chloro-2-{[(oxetan-3-ylmethyl)amino]methyl}-7,8-dihydro-6H-spiro[[1,3]oxazolo[5,4-f]quinazoline-9,1′-cyclohexane]-7-one] | 10 to 100 |
| COCCNC(=O)c1cc2cc(Cl)c3c(c2o1)C1(CCCCC1)NC(=O)N3 [Example 249, 5′-Chloro-N-(2-methoxyethyl)-7′-oxo-7′,8′-dihydro-6′H-spiro[cyclohexane-1,9′-furo[2,3-f]quinazoline]-2′-carboxamide] | 100 to 1000 |
| CN(Cc1cc(-c2ccccc2)on1)C(=O)c1cc2cc(Cl)c3c(c2o1)C1(CCCCC1)NC(=O)N3 [Example 345, 5′-Chloro-N-methyl-7′-oxo-N-[(5-phenyl-1,2-oxazol-3-yl)methyl]-7′,8′-dihydro-6′H-spiro[cyclohexane-1,9′-furo[2,3-f]quinazoline]-2′-carboxamide] | 100 to 1000 |
| CC(C)C(C)NC(=O)c1cc2cc(Cl)c3c(c2o1)C1(CCCCC1)NC(=O)N3 (stereo not shown) [Example 428, 5′-Chloro-N-(3-methylbutan-2-yl)-7′-oxo-7′,8′-dihydro-6′H-spiro[cyclohexane-1,9′-furo[2,3-f]quinazoline]-2′-carboxamide] | 10 to 100 |
| CN(C)CCN(C)C(=O)c1cc2cc(Cl)c3c(c2o1)C1(CCCCC1)NC(=O)N3 [Example 430, 5′-Chloro-N-[2-(dimethylamino)ethyl]-N-methyl-7′-oxo-7′,8′-dihydro-6′H-spiro[cyclohexane-1,9′-furo[2,3-f]quinazoline]-2′-carboxamide] | 100 to 1000 |
| O=C1Nc2c(Cl)cc3cc(C(=O)NCCC4CCOCC4)oc3c2C2(CCCCC2)N1 [Example 347, 5′-Chloro-N-[2-(oxan-4-yl)ethyl]-7′-oxo-7′,8′-dihydro-6′H-spiro[cyclohexane-1,9′-furo[2,3-f]quinazoline]-2′-carboxamide] | 10 to 100 |
| O=C1Nc2c(Cl)cc3cc(C(=O)N4CCC5(CC4)OCCc4ccccc45)oc3c2C2(CCCCC2)N1 [Example 351, 5′-Chloro-2′-({3,4-dihydrospiro[2-benzopyran-1,4′-piperidine]-1′-yl}carbonyl)-7′,8′-dihydro-6′H-spiro[cyclohexane-1,9′-furo[2,3-f]quinazoline]-7′-one] | 100 to 1000 |
| COc1cccc(N2CCN(C(=O)c3cc4cc(Cl)c5c(c4o3)C3(CCCCC3)NC(=O)N5)CC2)c1 [Example 454, 5′-Chloro-2′-[4-(3-methoxyphenyl)piperazine-1-carbonyl]-7′,8′-dihydro-6′H-spiro[cyclohexane-1,9′-furo[2,3-f]quinazoline]-7′-one] | 100 to 1000 |
| O=C1Nc2c(Cl)cc3cc(C(=O)N4CCCCC4)oc3c2C2(CCCCC2)N1 [Example 234, 5′-Chloro-2′-(piperidine-1-carbonyl)-7′,8′-dihydro-6′H-spiro[cyclohexane-1,9′-furo[2,3-f]quinazoline]-7′-one] | 10 to 100 |
| COC(=O)c1nc2cc(Cl)c3c(c2o1)C1(CCC(F)(F)CC1)NC(=O)N3 [Example 9, Methyl 5′-chloro-4,4-difluoro-7′-oxo-7′,8′-dihydro-6′H-spiro[cyclohexane-1,9′-oxazolo[5,4-f]quinazoline]-2′-carboxylate] | 100 to 1000 |
| O=C1Nc2c(Cl)cc3nc(CN[C@H]4CCCOC4)oc3c2C2(CCC(F)(F)CC2)N1 [Example 226, 5-Chloro-4′,4′-difluoro-2-({[(3S)-oxan-3-yl]amino}methyl)-7,8-dihydro-6H-spiro[[1,3]oxazolo[5,4-f]quinazoline-9,1′-cyclohexane]-7-one] | 100 to 1000 |

| Compound | IC50 [nM] |
| --- | --- |
| O=C1Nc2c(Cl)cc3nc(CNC[C@H]4CCOC4)oc3c2C2(CCC(F)(F)CC2)N1 [Example 227, 5-Chloro-4′,4′-difluoro-2-({[(3R)-oxolan-3-ylmethyl]amino}methyl)-7,8-dihydro-6H-spiro[[1,3]oxazolo[5,4-f]quinazoline-9,1′-cyclohexane]-7-one] | 100 to 1000 |
| CC(C)N1CCN(C(=O)c2cc3cc(Cl)c4c(c3o2)C2(CCCCC2)NC(=O)N4)CC1 [Example 415, 5′-Chloro-2′-[4-(propan-2-yl)piperazine-1-carbonyl]-7′,8′-dihydro-6′H-spiro[cyclohexane-1,9′-furo[2,3-f]quinazoline]-7′-one] | 10 to 100 |
| CN1CCC(OCc2nc3cc(Cl)c4c(c3o2)C2(CCCCC2)NC(=O)N4)CC1 [Example 178, 5-Chloro-2-{[(1-methylpiperidin-4-yl)oxy]methyl}-7,8-dihydro-6H-spiro[[1,3]oxazolo[5,4-f]quinazoline-9,1′-cyclohexane]-7-one] | 100 to 1000 |
| O=C1Nc2c(Cl)cc3cc(CNC4CCCNC4)oc3c2C2(CCCCC2)N1 (stereo not shown) [Example 571, 5′-Chloro-2′-{[(piperidin-3-yl)amino]methyl}-7′,8′-dihydro-6′H-spiro[cyclohexane-1,9′-furo[2,3-f]quinazoline]-7′-one] | 100 to 1000 |
| O=C1Nc2c(Cl)cc3nc(COC4CCOCC4)oc3c2C2(CCCCC2)N1 [Example 177, 5-Chloro-2-[(oxan-4-yloxy)methyl]-7,8-dihydro-6H-spiro[[1,3]oxazolo[5,4-f]quinazoline-9,1′-cyclohexane]-7-one] | 10 to 100 |
| O=C1Nc2c(Cl)cc3cc(CNCC(F)(F)F)oc3c2C2(CCCCC2)N1 [Example 527, 5′-Chloro-2′-{[(2,2,2-trifluoroethyl)amino]methyl}-7′,8′-dihydro-6′H-spiro[cyclohexane-1,9′-furo[2,3-f]quinazoline]-7′-one] | 100 to 1000 |
| CC1C(=O)N(C)CCN1Cc1nc2cc(Cl)c3c(c2o1)C1(CCCCC1)NC(=O)N3 (stereo not shown) [Example 62, 5-Chloro-2-[(2,4-dimethyl-3-oxopiperazin-1-yl)methyl]-7,8-dihydro-6H-spiro[[1,3]oxazolo[5,4-f]quinazoline-9,1′-cyclohexane]-7-one] | 10 to 100 |
| COC(=O)CNCc1nc2cc(Cl)c3c(c2o1)C1(CCCCC1)NC(=O)N3 [Example 131, Methyl 2-({5-chloro-7-oxo-7,8-dihydro-6H-spiro[[1,3]oxazolo[5,4-f]quinazoline-9,1′-cyclohexane]-2-ylmethyl}amino)acetate] | 10 to 100 |
| O=C1Nc2c(Cl)cc3nc(CNCc4ccc(F)cn4)oc3c2C2(CCCCC2)N1 [Example 67, 5-Chloro-2-({[(5-fluoropyridin-2-yl)methyl]amino}methyl)-7,8-dihydro-6H-spiro[[1,3]oxazolo[5,4-f]quinazoline-9,1′-cyclohexane]-7-one] | 10 to 100 |
| COC1CN(Cc2nc3cc(Cl)c4c(c3o2)C2(CCCCC2)NC(=O)N4)C1 [Example 74, 5-Chloro-2-[(3-methoxyazetidin-1-yl)methyl]-7,8-dihydro-6H-spiro[[1,3]oxazolo[5,4-f]quinazoline-9,1′-cyclohexane]-7-one] | 10 to 100 |
| O=C1Nc2c(Cl)cc3nc(CNCC4(F)COC4)oc3c2C2(CCCCC2)N1 [Example 83, 5-Chloro-2-({[(3-fluorooxetan-3-yl)methyl]amino}methyl)-7,8-dihydro-6H-spiro[[1,3]oxazolo[5,4-f]quinazoline-9,1′-cyclohexane]-7-one] | 10 to 100 |
| O=C1Nc2c(Cl)cc3cc(C(=O)NCCCO)oc3c2C2(CCCCC2)N1 [Example 256, 5′-Chloro-N-(3-hydroxypropyl)-7′-oxo-7′,8′-dihydro-6′H-spiro[cyclohexane-1,9′-furo[2,3-f]quinazoline]-2′-carboxamide] | 10 to 100 |
| O=C1Nc2c(Cl)cc3nc(CNC[C@@H]4CCOC4)oc3c2C2(CCC(F)(F)CC2)N1 [Example 169, 5-Chloro-4′,4′-difluoro-2-({[(3S)-oxolan-3-ylmethyl]amino}methyl)-7,8-dihydro-6H-spiro[[1,3]oxazolo[5,4-f]quinazoline-9,1′-cyclohexane]-7-one] | 10 to 100 |
| O=C1Nc2c(Cl)cc3cc(C(=O)N4CCC4)oc3c2C2(CCCCC2)N1 [Example 235, 2′-(Azetidine-1-carbonyl)-5′-chloro-7′,8′-dihydro-6′H-spiro[cyclohexane-1,9′-furo[2,3-f]quinazoline]-7′-one] | 10 to 100 |
| O=C1Nc2c(Cl)cc3cc(C(=O)NC4CCN(c5cccnc5)CC4)oc3c2C2(CCCCC2)N1 [Example 350, 5′-Chloro-7′-oxo-N-(1-(pyridin-3-yl)piperidin-4-yl)-7′,8′-dihydro-6′H-spiro[cyclohexane-1,9′-furo[2,3-f]quinazoline]-2′-carboxamide] | 10 to 100 |
